# Measured values reported in article PMC8882856, “The affinity and selectivity of α‐adrenoceptor antagonists, antidepressants and antipsychotics for the human α2A, α2B, and α2C‐adrenoceptors and comparison with human α1 and β‐adrenoceptors” (Pharmacology Research & Perspectives, 2022).
# Experiments:
# human α2B‐adrenoceptor [1] = target: T1, human α2B‐adrenoceptor (Homo sapiens, UniProt P18089); experiment: ^3H‐RX821002 whole cell competition binding, CHO‐α2B cells; conditions: ^3H‐RX821002 as radioligand; living CHO cells; log values, mean ± s.e.mean; ^app = apparent KD
# T1 sequence (P18089 1-450): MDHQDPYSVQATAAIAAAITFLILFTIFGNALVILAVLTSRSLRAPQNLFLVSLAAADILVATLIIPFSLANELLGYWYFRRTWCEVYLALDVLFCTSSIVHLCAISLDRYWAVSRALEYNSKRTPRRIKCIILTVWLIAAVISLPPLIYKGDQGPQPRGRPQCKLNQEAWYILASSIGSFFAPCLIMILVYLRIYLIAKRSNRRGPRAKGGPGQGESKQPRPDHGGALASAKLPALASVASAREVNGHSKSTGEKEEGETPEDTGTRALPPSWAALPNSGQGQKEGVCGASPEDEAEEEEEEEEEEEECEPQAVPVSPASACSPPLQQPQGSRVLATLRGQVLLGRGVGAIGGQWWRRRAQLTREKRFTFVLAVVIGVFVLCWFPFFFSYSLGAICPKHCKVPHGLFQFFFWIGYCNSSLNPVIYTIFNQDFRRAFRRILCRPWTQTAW
# human α2C‐adrenoceptor [2] = target: T2, human α2C‐adrenoceptor (Homo sapiens, UniProt P18825); experiment: ^3H‐RX821002 whole cell competition binding, CHO‐α2C cells; conditions: ^3H‐RX821002 as radioligand; living CHO cells; log values, mean ± s.e.mean
# T2 sequence (P18825 1-462): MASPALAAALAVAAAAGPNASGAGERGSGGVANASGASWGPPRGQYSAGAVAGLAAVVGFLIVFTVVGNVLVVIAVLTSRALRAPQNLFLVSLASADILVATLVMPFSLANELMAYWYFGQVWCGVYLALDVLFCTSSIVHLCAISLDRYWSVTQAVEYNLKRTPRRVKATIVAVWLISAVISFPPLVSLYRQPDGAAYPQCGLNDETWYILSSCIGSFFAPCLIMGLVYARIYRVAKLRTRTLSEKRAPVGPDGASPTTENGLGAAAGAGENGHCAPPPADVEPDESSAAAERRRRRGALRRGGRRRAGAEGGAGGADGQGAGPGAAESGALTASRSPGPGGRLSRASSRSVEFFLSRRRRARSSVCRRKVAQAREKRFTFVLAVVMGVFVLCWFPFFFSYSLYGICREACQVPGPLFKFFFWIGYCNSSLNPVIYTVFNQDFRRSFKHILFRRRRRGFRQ
# human α2A‐adrenoceptor [3] = target: T3, human α2A‐adrenoceptor (Homo sapiens, UniProt P08913)
# T3 sequence (P08913 1-465): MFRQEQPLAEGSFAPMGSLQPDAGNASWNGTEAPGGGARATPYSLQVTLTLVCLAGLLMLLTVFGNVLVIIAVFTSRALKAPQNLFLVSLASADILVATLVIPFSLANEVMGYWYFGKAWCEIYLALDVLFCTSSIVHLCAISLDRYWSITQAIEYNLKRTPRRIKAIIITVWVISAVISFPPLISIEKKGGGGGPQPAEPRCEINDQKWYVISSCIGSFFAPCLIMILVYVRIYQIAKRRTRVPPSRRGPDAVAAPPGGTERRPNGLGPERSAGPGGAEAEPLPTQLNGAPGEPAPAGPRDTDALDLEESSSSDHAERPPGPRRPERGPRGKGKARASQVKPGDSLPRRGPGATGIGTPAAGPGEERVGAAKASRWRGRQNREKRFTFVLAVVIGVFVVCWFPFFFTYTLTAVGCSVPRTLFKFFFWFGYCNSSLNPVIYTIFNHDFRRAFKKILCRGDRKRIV
# human β1‐adrenoceptor = human β1‐adrenoceptor (Homo sapiens, UniProt P08588); conditions: for Log KD β1: mean ± s.e.mean
# human α2A‐adrenoceptor [4] = target: T3, human α2A‐adrenoceptor; experiment: ^3H‐RX821002 whole cell competition binding, CHO‐α2A cells; conditions: ^3H‐RX821002 as radioligand; living CHO cells; log values, mean ± s.e.mean; ^app = apparent KD from extrapolated curve
# human α2C‐adrenoceptor [5] = target: T2, human α2C‐adrenoceptor
# human α2B‐adrenoceptor [6] = target: T1, human α2B‐adrenoceptor; experiment: ^3H‐rauwolscine whole cell competition binding, CHO‐α2B cells
# human α2C‐adrenoceptor [7] = target: T2, human α2C‐adrenoceptor; experiment: ^3H‐rauwolscine whole cell competition binding, CHO‐α2C cells; conditions: ratio of KD values
# human α2B‐adrenoceptor [8] = target: T1, human α2B‐adrenoceptor
# human α2B‐adrenoceptor [9] = target: T1, human α2B‐adrenoceptor; experiment: whole cell saturation binding of radioligands, CHO‐α2B cells; conditions: whole living cells, 2 h 37°C; read-out: KD of radioligand, saturation binding, CHO‐α2B cells
# human α2C‐adrenoceptor [10] = target: T2, human α2C‐adrenoceptor; experiment: whole cell saturation binding of radioligands, CHO‐α2C cells; conditions: whole living cells, 2 h 37°C; read-out: KD of radioligand, saturation binding, CHO‐α2C cells
# human α2A‐adrenoceptor [11] = target: T3, human α2A‐adrenoceptor; experiment: whole cell saturation binding of radioligands, CHO‐α2A cells; conditions: whole living cells, 2 h 37°C; read-out: KD of radioligand, saturation binding, CHO‐α2A cells
# human α1A‐adrenoceptor [12] = target: human α1A‐adrenoceptor; set-up: method as in PMID 32608144; conditions: identical whole cell method; ref [33]; read-out: α1A‐adrenoceptor affinity; cited from earlier work
# human α2A‐adrenoceptor [13] = target: T3, human α2A‐adrenoceptor; experiment: ^3H‐rauwolscine whole cell competition binding, CHO‐α2A cells
# human α1A‐adrenoceptor [14] = experiment: whole cell binding at α1A‐adrenoceptor, identical technique, previous study [33]; conditions: abstract
# Sequence of human β1‐adrenoceptor (P08588 whole entry): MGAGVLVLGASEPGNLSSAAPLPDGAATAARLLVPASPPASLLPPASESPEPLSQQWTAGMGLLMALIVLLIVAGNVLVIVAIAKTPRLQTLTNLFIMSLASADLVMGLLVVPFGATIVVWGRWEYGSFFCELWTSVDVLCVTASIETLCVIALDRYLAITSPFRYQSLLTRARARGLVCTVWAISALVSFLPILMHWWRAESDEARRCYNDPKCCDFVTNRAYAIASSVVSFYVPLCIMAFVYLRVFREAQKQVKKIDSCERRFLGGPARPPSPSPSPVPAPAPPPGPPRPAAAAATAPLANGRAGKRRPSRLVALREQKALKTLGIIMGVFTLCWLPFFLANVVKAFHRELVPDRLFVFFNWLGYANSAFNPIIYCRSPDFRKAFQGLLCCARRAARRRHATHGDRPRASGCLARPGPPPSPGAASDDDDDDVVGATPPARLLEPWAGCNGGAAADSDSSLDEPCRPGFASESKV
compound,measurement,setting,value
COc1ccccc1N1CCN(CCN2C(=O)c3ccccc3C(C)(C)C2=O)CC1 [ARC239],Log KD α2B,human α2B‐adrenoceptor [1],−7.29 ± 0.14
same,Log KD α2C,human α2C‐adrenoceptor [2],−7.18 ± 0.05
same,Kd,human α2A‐adrenoceptor [3],1020 nM
same,"IC50 (log) β1, IC50>top concentration used","human β1‐adrenoceptor; ^3H‐CGP12177, log value",IC50>−5
same,Log KD α2A,human α2A‐adrenoceptor [4],−5.99 ± 0.06
same,Kd,human α2C‐adrenoceptor [5],56.2 nM
same,selectivity α2B versus α2C,human α2B‐adrenoceptor [6],less than 5 fold
same,Selectivity ratio α2A vs α2B (higher affinity for α2B),human α2B‐adrenoceptor [6]; ratio of KD values,21.4
same,Selectivity ratio α2B vs α2C (higher affinity for α2B),human α2B‐adrenoceptor [6]; ratio of KD values,1.2
same,Selectivity ratio α2A vs α2C (higher affinity for α2C),human α2C‐adrenoceptor [7],18.2
same,Kd,human α2B‐adrenoceptor [8],47.9 nM
COC1(C2=NCCN2)COc2ccccc2O1 (centres unmarked) [^3H‐RX821002],Kd,human α2B‐adrenoceptor [9],18 ± 1.41 nM
same,Kd,human α2C‐adrenoceptor [10],3.6 ± 0.24 nM
same,Kd,human α2A‐adrenoceptor [11],4.73 ± 0.42 nM
CC1c2ccccc2CN1CC1=NCCN1 (centres unmarked) [BRL44408],Log KD α2B,human α2B‐adrenoceptor [1],−5.59 ± 0.05
same,Log KD α2C,human α2C‐adrenoceptor [2],−6.32 ± 0.09
same,Kd,human α2A‐adrenoceptor [3],64.6 nM
same,Log KD β1,"human β1‐adrenoceptor; ^3H‐CGP12177 whole cell binding, log values, ^app = apparent KD, 'no binding to' = log top concentration",No binding to −3
same,Log KD β1,"human β1‐adrenoceptor; given as log KD (negative values), 3H-CGP12177 whole cell binding, CHO cells",No binding to -3
same,Log KD α2A,human α2A‐adrenoceptor [4],−7.24 ± 0.05
same,Kd,human α1A‐adrenoceptor [12],81 nM
same,Kd,human α2C‐adrenoceptor [5],603 nM
same,selectivity for α2A over α2C,human α2A‐adrenoceptor [13],9 fold
same,Selectivity ratio α2A vs α2B (higher affinity for α2A),human α2A‐adrenoceptor [13]; ratio of KD values,60.3
same,Selectivity ratio α2A vs α2C (higher affinity for α2A),human α2A‐adrenoceptor [13]; ratio of KD values,9.3
same,Kd,"human α2A‐adrenoceptor [13]; read-out: α2A‐affinity, this study",65 nM
same,α1A‐affinity greater than α2C‐affinity,human α1A‐adrenoceptor [14],9 fold
same,Selectivity ratio α2B vs α2C (higher affinity for α2C),human α2C‐adrenoceptor [7],6.5
same,Kd,human α2B‐adrenoceptor [8],3890 nM

# Read-outs that look alike come from different tables or passages of the source.
